# The inconclusive results got no clear call from the source; some entries with a clear call stand among them for comparison. Potencies of inconclusive entries are left out as doubtful fits. The source made the active and inactive calls. The call rests on the fitted dose curve; in most records, active means well fitted curve in the direction sought with a large enough effect in the repeat runs; inconclusive means weak or mixed curves; inactive means no such curve, though single readings can be large; an effect the other way counts as inactive or inconclusive.
# Test: qHTS assay to identify small molecule antagonists of the retinoic acid receptor (RAR) signaling pathway (AID 1159552; further: nearly all actives have a fitted effect of over 50% in size)
# Conditions: C3RL4 RARE luciferase reporter, retinol-stimulated, 6 h; series mostly up to 92.4 µM; activity, negative = inhibition: at the top concentration
# Summary of the method: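 Retinol signaling pathway inhibitors screened in C3RL4 RARE-luciferase reporter cells seeded overnight at 37 C, then compounds added with 1 uM (final) retinol as pathway substrate. After 6 hr at 37 C, luciferase luminescence read after 30 min at room temperature.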
# On the % scale 0 is the no-effect control and ±100 the full control effect; potency means the concentration at half of the fitted maximal effect; tags describe the fitted curve by direction and shape.
SMILES,Potency,"activity, negative = inhibition"
C/C=C\C/C=C/CCCCCCCCOC(C)=O,inconclusive [inhibitor],–
O=S1(=O)OC(c2ccc(O)cc2)(c2ccc(O)cc2)c2ccccc21,"inconclusive [inhibitor, partial curve, poor fit]",–
c1ccc(CCc2ccccc2)cc1,–,inactive: -1.42%

# Test: qHTS assay to identify small molecule agonists of the retinoic acid receptor (RAR) signaling pathway (AID 1159553)
# Conditions: C3RL4 RARE luciferase reporter, agonist, 6 h; activation: at 73.3 µM (top of the series) unless noted
# Summary of the method: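 Luminescence was measured 30 min after luciferase reagent addition at room temperature. Before that, C3RL4 reporter cells (1,000 per well, plated overnight) were treated with compound for 6 hr at 37 C and 5% CO2.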
SMILES,Potency,activation
CC(C)CC(C)CC(O)CC(C)C (stereo not drawn),inactive,–
CC(C)CC(=O)OCc1ccccc1,–,inactive: 6.2%
COc1ccc(/C=C/S(=O)(=O)NC(=O)c2ccc(C)cc2Cl)cc1,–,inactive: 4.92%
Nc1ccc(N=Nc2ccc(N)cc2)cc1,active: 0.863 µM,–
NC(=O)c1cccc([N+](=O)[O-])c1,–,inconclusive: -0.489% [phenotype inactive]
CCn1cc(C(=O)O)c(=O)c2ccc(C)nc21,–,inconclusive: 4.61% [phenotype inactive]
CC(C)NC(=O)c1ccc(C=O)cc1,active: 26.6 µM,–
CC(C)=CCC[C@](C)(O)[C@@H]1CC=C(C)CC1,–,inactive: -4.76%
CC(C)c1ccccc1O,–,inactive: -0.212%
COc1ccc(-n2nc(C(F)F)cc2-c2ccc(S(C)=O)cc2)cc1 (stereo not drawn),–,inactive: 0.577%
CCCc1ccc(OCC(=O)N2CCN(C(=O)COc3ccc(CCC)cc3OC)CC2)c(OC)c1,"inconclusive [inhibitor, single point]",–
O=C1CCCCCCCCCCCCCCCO1,–,inconclusive: 6.19% [phenotype inactive]
CCN(C(=O)c1cc(C)cc(OC[C@H](C)Nc2ccncc2)c1)C(C)C,–,inactive: -0.38%
NC(=O)Nc1nc2ccccc2[nH]1,–,inactive: 0.15%
O=C(O)c1ccc(O)cc1O,–,inactive: -0.373% [at 94.8 µM]
CNCc1ccccc1,–,inactive: 1.15%
CC1(C)C(=O)N(Br)C(=O)N1Cl,–,inactive: -6.25%
O=C(O)c1cc(Br)c(O)c(Br)c1,–,inconclusive: 8.74% [phenotype inactive]

SMILES,Potency,activation
OC(CCN1CCCCC1)(c1ccccc1)c1ccccc1,–,inactive: -4.46%
CC(CN)CCCN (stereo not drawn),–,inconclusive: 5.75% [phenotype inactive]
CC1(C)O[C@@H]2C[C@H]3[C@@H]4C[C@H](F)C5=CC(=O)CC[C@]5(C)[C@H]4[C@@H](O)C[C@]3(C)[C@]2(C(=O)CO)O1,inactive,–
O=c1[nH]c(=O)n([C@H]2C[C@H](O)[C@@H](CO)O2)cc1F,–,inactive: -3.02%
CSSc1ccoc1C,active: 0.0431 µM,–
CC(=O)OC1CCC(C(C)(C)C)CC1 (stereo not drawn),–,inactive: -0.463%
O=C1C(c2[nH]c3ccc(S(=O)(=O)O)cc3c2O)=Nc2ccc(S(=O)(=O)O)cc21,"inconclusive [inhibitor, partial curve]",–
CCc1ccc(Br)cc1,–,inactive: -0.618% [at 94.8 µM]
Cn1c(N)c(N=O)c(=O)n(C)c1=O,–,inactive: -2.1% [at 94.8 µM]
COCCOC,–,inactive: -0.496%
CCC(C)(CCC(C)C)C(=O)[O][Sn]([CH3])([CH3])[O]C(=O)C(C)(CC)CCC(C)C (stereo not drawn),–,inconclusive: -0.918% [phenotype inactive]
CN(C)C(=O)Oc1cccc([N+](C)(C)C)c1,–,inactive: 0.0945%
O=C(/C=C/c1ccccc1)OC/C=C/c1ccccc1,"inconclusive [activator, partial curve, poor fit]",–
CC(=O)CC/C=C(\C)CC/C=C(\C)CC/C=C(\C)CCC=C(C)C,–,inactive: 0.296%
COc1ccc(CCN(C)CCCN2CCc3cc(OC)c(OC)cc3CC2=O)cc1OC,"inconclusive [activator, partial curve, poor fit]",–
CCOCCOCCOCC,–,inconclusive: 1.26% [phenotype inactive]
O=C(O)c1ccccc1C(=O)O,inactive,–

# Reference: PubChem BioAssay (Tox21)
